# Laboratory results reported in PubChem BioAssay AID1476 (National Center for Advancing Translational Sciences (NCATS), 2009).
# “And” between values parts separate entries of the source, which are not always exact repeats. Equal values may be shown once. About 4,500 (2.2%) of roughly 200,000 compounds were called active. The shares of active, inactive and inconclusive entries below differ from those in the screen. Calls follow the shape of the dose curve; as a rule, active = well fitted inhibition curve with a large enough effect; inconclusive = small, poorly fitted or top-dose-only effect, or effect the other way; inactive = flat fitted curve, though single readings scatter. Potencies beside an inconclusive call are fits to weak or partial responses and may not hold up.
# Target: Cruzipain (Trypanosoma cruzi) (UniProt P25779)
# Experiment: qHTS Assay for Promiscuous and Specific Inhibitors of Cruzain (without detergent); also: nearly all actives have a fitted effect of over 40% in size;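 as to max response, negative = inhibition: plate controls were enzyme without inhibitor for no effect and buffer without enzyme for full effect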
# Conditions: purified cruzain, Z-FR-AMC fluorescence, no detergent
# How it was run: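 Purified cruzain at 1.5 nM, pre-incubated 15 min with compound at room temperature in 100 mM sodium acetate pH 5.5, 5 mM DTT, 0.00005% Triton X-100. Reaction started with 2 uM Z-FR-AMC; AMC fluorescence increase over 60 s gives rate.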
# Potency is read from the fitted curve at half-maximal effect; tags tell the direction and shape of the fitted curve.
# UniProt P25779, sequence (P25779 whole entry, looked up): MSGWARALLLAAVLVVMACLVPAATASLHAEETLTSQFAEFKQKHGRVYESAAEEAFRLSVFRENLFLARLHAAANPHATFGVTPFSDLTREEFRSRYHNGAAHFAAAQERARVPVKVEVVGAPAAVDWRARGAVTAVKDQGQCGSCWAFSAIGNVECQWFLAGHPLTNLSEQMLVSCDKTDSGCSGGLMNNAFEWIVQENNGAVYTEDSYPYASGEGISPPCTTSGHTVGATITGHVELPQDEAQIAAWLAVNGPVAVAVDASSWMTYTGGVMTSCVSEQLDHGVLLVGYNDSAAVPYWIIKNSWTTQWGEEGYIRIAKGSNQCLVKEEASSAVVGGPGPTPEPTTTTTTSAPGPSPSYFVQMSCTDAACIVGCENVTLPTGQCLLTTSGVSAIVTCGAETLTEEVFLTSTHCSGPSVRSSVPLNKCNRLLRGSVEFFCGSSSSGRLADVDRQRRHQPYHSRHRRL
Compound,"max response, negative = inhibition",Potency
CC1CCN(S(=O)(=O)c2ccc3c(c2)N(CC(=O)NCCCOC(C)C)C(=O)CO3)CC1,inactive: -1.59%,–
Cc1ccc(CNC(=O)/C=C/c2ccc(S(=O)(=O)NCc3ccco3)cc2)cc1,–,"inconclusive: 12.6 µM [inhibitor, partial curve]"
Cc1ccc(NC2(c3ccccc3)C(=O)c3ccccc3C2=O)cc1F,inactive: -17.5%,–
O=C(O)C1CC=CCC1C(=O)N1CCN(c2nc(-c3ccccc3)c3ccccc3n2)CC1 (centres undefined),–,"inconclusive: 39.8 µM [activator, single point]"
Cn1cc(/C=C2/SC(=O)N(CC(=O)Nc3ccc4c(c3)OCO4)C2=O)c2ccccc21,–,active: 25.1 µM
C=C(C)CN(CC#N)CC(=C)C,inactive: 5.51%,–
CCN(CC)S(=O)(=O)c1ccc(-c2nnc(SCc3nnc(-c4ccc(C)cc4)o3)n2CC)cc1,–,"inconclusive: 25.1 µM [activator, single point]"
Cc1ccc2scc(N3CCCCC3C)c(=O)c2c1 (centres undefined),inactive: 6.1%,–
Cc1ccc(C2CC(=O)N(Cc3ccc(F)cc3)c3c2c(C)nn3-c2nc(C)cc(C)n2)cc1 (centres undefined),–,"inconclusive: 39.8 µM [activator, single point]"
CCNC(=S)N=Nc1c(O)n(Cc2ccc(Cl)cc2)c2ccccc12,–,"inconclusive: 39.8 µM [inhibitor, single point]"
COc1ccc(NC(=O)CSc2nc3ccccc3nc2N2CCOCC2)c(OC)c1,–,"inconclusive: 39.8 µM [activator, single point]"
COc1cc(SC)ccc1C(=O)Nc1ccc2c(c1)CCN2S(C)(=O)=O,–,"inconclusive: 39.8 µM [activator, single point]"
Cc1ccc(-c2noc(-c3ccc(N4CCOCC4)c([N+](=O)[O-])c3)n2)cc1,inactive: 0.843%,–
COCCCNC(=O)c1c(NC(=O)Cc2coc3cc(C)ccc23)sc2c1CCCC2,inactive: 6.21%,–
Cc1nnc(N2C(=O)c3oc4ccccc4c(=O)c3C2c2cccc(OCCC(C)C)c2)s1 (centres undefined),inactive: 0.185%,–
CN(C)c1nc(Oc2ccc(=O)[nH]n2)nc(N2CCOCC2)n1,inactive: -4.4%,–
Cc1ccc(-n2cccc2/C=C2/C(=N)N3C(=NC2=O)SN=C3S(C)(=O)=O)cc1Cl,–,"inconclusive: 25.1 µM [activator, partial curve]"
COc1cc(C(=O)NCCc2sc(-c3ccc(C)cc3)nc2C)cc(OC)c1OC,–,"inconclusive: 31.6 µM [activator, single point]"
CC1CCN(C(=O)Cn2cc(SCC(=O)NCc3ccc(F)cc3)c3ccccc32)CC1,inactive: 5.93%,–
Cc1cccc(C2=NN(c3ccc(Br)cc3)[C@@H](C(=O)N3CCOC3=O)[C@@H]2C)c1,–,active: 28.2 µM
CN1CCN(Cc2nc3c(c(=O)[nH]c(=O)n3C)n2Cc2c(F)cccc2Cl)CC1,inactive: -3.55%,–
CCCN(Cc1ccccc1)S(=O)(=O)c1ccc(N2C(=O)CCC2=O)cc1,–,"inconclusive: 31.6 µM [activator, single point]"

Compound,"max response, negative = inhibition",Potency
Cc1ccc2c(c1)-c1c(ssc1=S)C(C)(C)N2C(=O)CSC1=NCCS1,–,"inconclusive: 39.8 µM [inhibitor, single point]"
O=C(COc1ccc2oc3c(c2c1)CCCC3)Nc1cccc(Br)c1,–,"inconclusive: 39.8 µM [inhibitor, single point]"
O=C1OCCN1C(=O)[C@H]1[C@H](c2ccc(Cl)cc2)C(c2ccc(F)cc2)=NN1c1ccccc1,–,"inconclusive: 31.6 µM [inhibitor, single point]"
CCOC(=O)C1=C(C)N=C2SC(C(=O)OC)=CC(=O)N2C1c1ccc(F)cc1 (centres undefined),–,"inconclusive: 31.6 µM [activator, single point]"
COc1ccc(NS(=O)(=O)c2cnc(N)nc2)cc1Cl,inactive: -3.56%,–
CCOC(=O)C1=C(C)N=C2SC(C(=O)OC)=CC(=O)N2C1c1cc(OC)c(OC)c(OC)c1 (centres undefined),–,"inconclusive: 12.6 µM [activator, partial curve]"
CN(C)c1ccc(/C=C/C(=O)c2ccc3c(c2)OCCO3)cc1[N+](=O)[O-],–,"inconclusive: 39.8 µM [inhibitor, single point]"
COc1cc(C(=O)Nc2nc(OC)c(-c3ccccc3)c(OC)n2)cc(OC)c1OC,–,"inconclusive: 31.6 µM [activator, single point]"
CCc1ccc(NC(=O)CCc2c(C)nn(-c3ccc(N4CCCC4)nn3)c2C)cc1,–,"inconclusive: 25.1 µM [activator, single point]"
Cc1cc(C)c2c(c1)NC(c1cc3c(cc1Br)OCO3)C1CC=CC21 (centres undefined),–,active: 20 µM
C=CC(C)(C)c1[nH]c2ccccc2c1C1=C(O)C(=O)C(c2c[nH]c3c(CC=C(C)C)cccc23)=C(O)C1=O,–,"inconclusive: 15.8 µM [activator, single point]"
COc1ccc(C2CC(c3cccs3)=Nc3ccccc3S2)cc1OC (centres undefined),inactive: 13.4%,–
Cc1cccc(C)c1Nc1sc(C(=O)c2ccccc2)c(N)c1S(=O)(=O)c1ccccc1,–,active: 15.8 µM
CCS(=O)(=O)c1ncc(Cl)c(C(=O)Nc2ccc(S(=O)(=O)N(C)c3ccccc3)cc2)n1,–,"inconclusive: 31.6 µM [inhibitor, single point]"
O=C(Nc1ccc2oc(-c3ccc4ccccc4c3)nc2c1)c1cccs1,–,"inconclusive: 15.8 µM [inhibitor, single point]"
O=C(Cn1cc(SCc2ccccc2Cl)c2ccccc21)N1CCOCC1,–,"inconclusive: 39.8 µM [activator, single point]"
COc1ccc(N(C(=O)c2ccco2)C(C(=O)NC2CCCC2)c2ccc(N(C)C)cc2)cc1 (centres undefined),–,"inconclusive: 39.8 µM [inhibitor, single point]"
COc1cccc(-c2cc(=O)c3cc(NC(=O)c4ccccc4)ccc3[nH]2)c1,–,"inconclusive: 31.6 µM [inhibitor, single point] and inconclusive: 44.7 µM [inhibitor, single point]"
Fc1ccccc1N1CCN(c2nc3ccccc3n3nnnc23)CC1,–,"inconclusive: 31.6 µM [inhibitor, single point]"
O=C(c1ccc2c(c1)OCO2)[C@@H]1[C@@H]2C(=O)N(C3CCCCC3)C(=O)[C@@H]2C2c3ccccc3C=CN21 (some centres undefined),–,active: 20 µM
C=Cc1ccc(CN2C(=O)N(c3ccc(C)c(C)c3)S(=O)(=O)c3ccccc32)cc1,–,"inconclusive: 39.8 µM [inhibitor, single point]"
O=C1c2ccccc2C(=O)N1CCC(c1ccc(F)cc1)c1ccco1 (centres undefined),–,"inconclusive: 31.6 µM [inhibitor, single point]"

Compound,"max response, negative = inhibition",Potency
Cc1cc(C)c2cccc(NC(=S)NC(=O)c3ccccc3)c2n1,–,"inconclusive: 39.8 µM [inhibitor, single point]"
COc1ccc(NC(=O)CCCOc2cc(=O)n(C)c3ccccc23)c(OC)c1,–,"inconclusive: 31.6 µM [activator, single point]"
Cc1ccc(NC(=O)Cn2cnc3c(oc4ccccc43)c2=O)cc1Cl,–,"inconclusive: 31.6 µM [inhibitor, single point]"
CCOc1ccccc1CNC(=O)c1cnn(-c2ccc(C)cc2)c1-n1cccc1,inactive: -5.07%,–
CCOC(=O)C1CCN(C(=O)CS(=O)Cc2nc(-c3ccc(C)cc3)oc2C)CC1 (centres undefined),inactive: 18.4%,–
Cc1ccc(C)c(NC(=O)Nc2cc3c(cc2N2CCCCC2)n(C)c(=O)n3C)c1,inactive: 25%,–
COc1ccc(Cn2c(C(=O)O)c(CNCc3ccco3)c3ccc(C)cc32)cc1,–,"inconclusive: 39.8 µM [activator, single point]"
O=C(NCc1ccccc1)c1cccn1-c1nnc(N2CCCCC2)s1,inactive: -19.9%,–
CCOC(=O)c1cnc2c(Cl)c(Cl)ccc2c1N1CCN(C)CC1,–,"inconclusive: 20 µM [inhibitor, single point]"
Cn1cc(Cl)c(C(=O)NC(=S)Nc2sc3c(c2C#N)CCCCC3)n1,–,"inconclusive: 31.6 µM [inhibitor, single point]"
COC(=O)[C@H](NC(=O)c1cc(-c2ccccc2)nc2ccccc12)c1ccccc1,–,"inconclusive: 6.31 µM [inhibitor, single point]"
COc1ccccc1Cn1cc(C(=O)c2ccccc2)c(=O)c2cc(OC)c(OC)cc21,–,"inconclusive: 31.6 µM [activator, single point]"
Cc1nn(CCC(=O)Nc2ccc(Cl)cc2)c(C)c1S(=O)(=O)N1CCCCC1,–,"inconclusive: 39.8 µM [activator, single point]"
COc1cc(/C=N/NC(=O)CSc2nc3ccccc3n2C)cc(OC)c1OC,inactive: 4.55%,–
O=C(Nc1ccc(Cl)cc1Cl)c1cc(S(=O)(=O)NCc2ccc3c(c2)OCO3)ccc1F,inactive: 0.0635%,–
CCCCN(C(=O)CNC(=O)c1ccco1)C(C(=O)NC1CCCCC1)c1ccc(OC)cc1OC (centres undefined),–,"inconclusive: 31.6 µM [activator, single point]"
Cc1ccc(S(=O)(=O)N(C)Cc2ccc(C(=O)N/N=C/c3ccc(OC(F)F)cc3)cc2)cc1,–,active: 10 µM
COc1ccc(CCNC(=O)c2ccc3c(c2)nc(C)n3-c2ccc(Br)cc2)cc1OC,–,"inconclusive: 39.8 µM [activator, single point]"
Cc1ccc(CNC(=O)C2CC(=O)N(C3CCCCCCC3)C2)cc1 (centres undefined),–,"inconclusive: 39.8 µM [activator, single point]"
COc1ccc(NS(=O)(=O)c2ccc(N3CCCC3)c(NC(=S)Nc3ccc(SC(F)F)cc3)c2)cc1,–,"inconclusive: 25.1 µM [inhibitor, single point]"
